The values below are quoted from earlier work in PMC11852049, “Impact of Hydrophobic, Hydrophilic, and Mucus-Binding Motifs on the Therapeutic Potential of Ceftazidime Analogs for Pulmonary Administration” (Antibiotics, 2025).

For this data set the following is noted: cited from earlier work.

Consider `CC(C)(O/N=C(\C(=O)N[C@@H]1C(=O)N2C(C(=O)[O-])=C(C[n+]3ccccc3)CS[C@H]12)c1csc(N)n1)C(=O)O` [Ceftazidime pentahydrate, ceftazidime pentahydrate, reference compound], for which the LogP – broadly, a log measure of how a compound divides between an organic and an aqueous phase – is on record as −1.60.
